Cell count data for 21 compounds are collected here from the supplement of paper PMC4604168 (melanoma cell lines).

The list shows a part of the results. Repeats are few or missing, and single values can be far off.
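Note: cells treated in 1,536-well plates, then fixed and DAPI-stained, with nuclei counted from automated high-throughput microscope images.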

In the experiment the test system is A101D. As to the kind of experiment: cell count relative to DMSO control; melanoma cells; higher = more viable cells. The note with it: library dose: standard library concentration; 72 h; first compound 2 µM.
`C[C@@H](N)c1ccc(C(=O)Nc2ccnc3[nH]ccc23)cc1` + CN1CCN(c2ccc3nc(-c4c(N)c5c(F)cccc5[nH]c4=O)[nH]c3c2)CC1 [Dovitinib] (partner dose 0.5 µM) showed a cell count of 60.3%.

Regarding `C[C@@H](N)c1ccc(C(=O)Nc2ccnc3[nH]ccc23)cc1` + CS(=O)(=O)CCNCc1ccc(-c2ccc3ncnc(Nc4ccc(OCc5cccc(F)c5)c(Cl)c4)c3c2)o1 [lapatinib] (partner dose 4 µM), the cell count was 73%.

Turning to `C[C@@H](N)c1ccc(C(=O)Nc2ccnc3[nH]ccc23)cc1` + COc1cc2c(Oc3ccc4[nH]c(C)cc4c3F)ncnc2cc1OCCCN1CCCC1 [cediranib] (partner dose 2 µM), the cell count turned out to be 86.7%.

For `CCCCCCCCCCCCCCCCCCOP(=O)([O-])OC1CC[N+](C)(C)CC1` [Perifosine] + C[C@@H]1CCN(C(=O)CC#N)C[C@@H]1N(C)c1ncnc2[nH]ccc12 [CP690550] (partner dose 5 µM), the cell count was 113%.

In turn, `C[C@@H](N)c1ccc(C(=O)Nc2ccnc3[nH]ccc23)cc1` + C#Cc1cccc(Nc2ncnc3cc(OCCOC)c(OCCOC)cc23)c1 [erlotinib] (partner dose 4 µM) gave a cell count of 58.3%.

`CCCCCCCCCCCCCCCCCCOP(=O)([O-])OC1CC[N+](C)(C)CC1` [Perifosine] + CO[C@H]1C[C@@H]2CC[C@@H](C)[C@@](O)(O2)C(=O)C(=O)N2CCCC[C@H]2C(=O)O[C@H]([C@H](C)C[C@@H]2CC[C@@H](OCCO)[C@H](OC)C2)CC(=O)[C@H](C)/C=C(\C)[C@@H](O)[C@@H](OC)C(=O)[C@H](C)C[C@H](C)/C=C/C=C/C=C/1C [everolimus] (partner dose 0.1 µM) registered a cell count of 83.9%.

In turn, `C[C@@H](N)c1ccc(C(=O)Nc2ccnc3[nH]ccc23)cc1` + COc1ccc(Cl)c(Nc2nc3ccccc3nc2NS(=O)(=O)c2cccc(NC(=O)C(C)(C)N)c2)c1 [XL147] (partner dose 4 µM) yielded a cell count of 74.9%.

In the case of `CCCCCCCCCCCCCCCCCCOP(=O)([O-])OC1CC[N+](C)(C)CC1` [Perifosine] + C=CCn1c(=O)c2cnc(Nc3ccc(N4CCN(C)CC4)cc3)nc2n1-c1cccc(C(C)(C)O)n1 [MK1775] (partner dose 0.1 µM), the cell count was found to be 60.9%.

Consider `CCCCCCCCCCCCCCCCCCOP(=O)([O-])OC1CC[N+](C)(C)CC1` [Perifosine] + CN1CCN(c2ccc3nc(-c4c(N)c5c(F)cccc5[nH]c4=O)[nH]c3c2)CC1 [Dovitinib] (partner dose 0.5 µM), for which the cell count was 63.3%.

`Cn1sc(=O)n(Cc2ccccc2)c1=O` + CN(NC(=O)CC(=O)NN(C)C(=S)c1ccccc1)C(=S)c1ccccc1 [STA4783] (partner dose 0.03 µM) gave a cell count of 73.6%.

`Cn1sc(=O)n(Cc2ccccc2)c1=O` + CO[C@@H]1[C@H](N(C)C(=O)c2ccccc2)C[C@H]2O[C@]1(C)n1c3ccccc3c3c4c(c5c6ccccc6n2c5c31)C(=O)NC4 [Midostaurin] (partner dose 0.4 µM) displayed a cell count of 74.7%.

In turn, `Cn1sc(=O)n(Cc2ccccc2)c1=O` + C[C@]1(O)C[C@@H](c2nc(-c3ccc4ccc(-c5ccccc5)nc4c3)c3c(N)nccn32)C1 [OSI906] (partner dose 2 µM) yielded a cell count of 108%.

`Cn1sc(=O)n(Cc2ccccc2)c1=O` + C#Cc1cccc(Nc2ncnc3cc(OCCOC)c(OCCOC)cc23)c1 [erlotinib] (partner dose 4 µM) came in with a cell count of 84.1%.

`C[C@@H](N)c1ccc(C(=O)Nc2ccnc3[nH]ccc23)cc1` + NC(=O)Nc1cc(-c2cccc(F)c2)sc1C(=O)N[C@H]1CCCNC1 [AZD7762] (partner dose 0.1 µM) came in with a cell count of 59.5%.

Consider `Cn1sc(=O)n(Cc2ccccc2)c1=O` + Nc1cccc2c1CN(C1CCC(=O)NC1=O)C2=O [lenalidomide] (partner dose 5 µM), for which the cell count came out at 110%.

Consider `Cn1sc(=O)n(Cc2ccccc2)c1=O` + Cc1cc(N2CCOCC2)cc2[nH]c(-c3c(NC[C@@H](O)c4cccc(Cl)c4)cc[nH]c3=O)nc12 [BMS536924] (partner dose 1 µM), for which the cell count came out at 88.1%.

The compound `C[C@@H](N)c1ccc(C(=O)Nc2ccnc3[nH]ccc23)cc1` + Cn1sc(=O)n(Cc2ccccc2)c1=O [TDZD-8] (partner dose 2 µM) showed a cell count of 68%.

Take `CCCCCCCCCCCCCCCCCCOP(=O)([O-])OC1CC[N+](C)(C)CC1` [Perifosine] + C[C@@H](N)c1ccc(C(=O)Nc2ccnc3[nH]ccc23)cc1 [RKI983] (partner dose 2 µM): the cell count turned out to be 77%.

Regarding `CCCCCCCCCCCCCCCCCCOP(=O)([O-])OC1CC[N+](C)(C)CC1` [Perifosine] + CCCS(=O)(=O)Nc1ccc(F)c(C(=O)c2c[nH]c3ncc(Cl)cc23)c1F [PLX4720] (partner dose 0.4 µM), the cell count was 85.8%.

Consider `CCCCCCCCCCCCCCCCCCOP(=O)([O-])OC1CC[N+](C)(C)CC1` [Perifosine] + Nc1ncn([C@H]2C[C@H](O)[C@@H](CO)O2)c(=O)n1 [decitabine] (partner dose 0.5 µM), for which the cell count stood at 72.5%.

With `Cn1sc(=O)n(Cc2ccccc2)c1=O` + CNC(=O)c1cc(Oc2ccc(NC(=O)Nc3ccc(Cl)c(C(F)(F)F)c3)cc2)ccn1 [sorafenib] (partner dose 2 µM), the cell count stood at 99.9%.
